# According to PubChem BioAssay AID2100 (National Center for Advancing Translational Sciences (NCATS), 2009):
# Where “and” joins values, the source holds several entries; their conditions need not be identical. Equal entries are not always repeated. About 1,200 (0.4%) of roughly 300,000 compounds were called active. Inconclusive results, whose numbers are uncertain, are shown with a selection of clear calls. Calls come from the whole dose curve; as a rule, active = well fitted inhibition curve with a large enough effect; inconclusive = small, poorly fitted or top-dose-only effect, or another doubt; inactive = no such curve, though single readings can be large or run the other way. A potency beside an inconclusive call is a rough fit, not a confirmed value.
# Target: Lysosomal alpha-glucosidase (Homo sapiens) (UniProt P10253)
# Assay: qHTS Assay for Inhibitors and Activators of Human alpha-Glucosidase Cleavage of Glycogen;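 for activity change, negative = inhibition: 0% = full enzyme reaction and -100% = no-enzyme basal signal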
# Details: recombinant GAA, glycogen substrate, Amplex Red glucose oxidase fluorescence; activity change, negative = inhibition: at 76.4 µM (top of the series) unless noted
# How it was run: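 Recombinant human enzyme (4 nM); glycogen substrate; 37 C, 40 min, pH 5.0. Readout: coupled glucose oxidase/Amplex Red fluorescence.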
# Potency is the fitted concentration of half-maximal effect.
SMILES,"activity change, negative = inhibition",Potency
Cn1c(=O)c(=O)n(C)c2cc(S(=O)(=O)Nc3ccc(Cl)c(C(F)(F)F)c3)ccc21,inactive: -10% [at 76.3 µM],
Cc1cc(Cl)ccc1NNC(=O)c1cccs1,,"inconclusive: 35.5 µM [inhibitor, single point]"
Cc1ccn2c(Nc3ccccc3C)c(-c3cccnc3)nc2c1,,"inconclusive: 8.91 µM [inhibitor, full curve] and inconclusive: 28.2 µM [inhibitor, partial curve]"
Cc1ccc(NC(=O)CCC(=O)N2CCSc3ccccc32)cc1,inactive: -7.46% [at 76.3 µM],
CN(C)c1nc(=NCc2ccco2)ss1,inactive: 1.56%,
CCC1CCCCN1C(=O)Cn1c(=O)n(CCCCCC(=O)NCc2ccccc2Cl)c(=O)c2sccc21 (stereo not drawn),inactive: 3.17% [at 76.3 µM],
Cc1nnc(Sc2cc(NCCCO)c([N+](=O)[O-])c3nonc23)s1,inactive: 2.32%,
NC(=O)C1(N2CCCCC2)CCN(C(=O)c2cccs2)CC1,,"inconclusive: 89.1 µM [inhibitor, partial curve]"
CN1C(CC(=O)Nc2ccc(Cl)cc2Cl)c2ccccc2CC1(C)C (stereo not drawn),,"inconclusive: 28 µM [activator, single point]"
Cc1ccc(CNc2ccc3c(c2)ncn3C)cc1,,"inconclusive: 12.5 µM [inhibitor, partial curve]"
Cc1cc(OCC(=O)NC(Cc2c[nH]c3ccc(O)cc23)C(=O)O)c2c(C)c(C)c(=O)oc2c1 (stereo not drawn),,"inconclusive: 3.98 µM [inhibitor, full curve]"
COc1ccc(-c2nn(CC(=O)Nc3ccc(Cl)c(Cl)c3)c(=O)c3ccccc23)cc1,inactive: 5.29%,
CCS(=O)(=O)N1CCc2cc(C(=O)Nc3cc(OC)c(Cl)cc3OC)ccc21,,"inconclusive: 10 µM [inhibitor, partial curve]"
CCOC(=O)N1CCC(NC(=S)Nc2ccc3nc(N4CCN(C)CC4)cc(C)c3c2)CC1,,"inconclusive: 12.6 µM [inhibitor, partial curve]"
CCc1c(C(C)S(=O)(=O)c2ccccc2)[nH]c(=O)n1CC (stereo not drawn),,"inconclusive: 22.4 µM [inhibitor, partial curve]"
Cn1c(=O)n(C)c2cc(NS(=O)(=O)c3ccc(C(C)(C)C)cc3)c(NCc3ccccc3)cc21,,"inconclusive: 28.2 µM [inhibitor, single point]"
COc1ccccc1-n1c(SCC(=O)N2CCCC2)nc2cccnc21,inconclusive: 31.2% [activator],
Cn1c(-c2ccc(F)cc2)cnc1NCc1ccc(C#N)cc1,,"inconclusive: 25.1 µM [inhibitor, partial curve]"
Cc1ccc(Nc2nc(-c3c(C)nc4ccccn34)cs2)cc1,,active: 28.2 µM
Cc1cc(Cl)ccc1NNC(N)=S,,"inconclusive: 35.5 µM [inhibitor, single point]"
Nc1ccc(S(=O)(=O)NC2(C(F)(F)F)NC(=O)N(c3cccc(Cl)c3)C2=O)cc1 (stereo not drawn),inactive: -4.66% [at 76.3 µM],
Cc1cnc(NC(=O)CSc2nnc(C)s2)s1,,"inconclusive: 3.95 µM [inhibitor, single point]"
CCOC(=O)C(=O)NNc1cccc(C)c1C,,"inconclusive: 8.91 µM [inhibitor, single point]"

SMILES,"activity change, negative = inhibition",Potency
CCOC(=O)C(=CNNc1cccc(Cl)c1)C(=O)OCC,,"inconclusive: 31.6 µM [inhibitor, single point]"
Nc1c(NCc2ccccc2)c2ccccc2oc1=O,,"inconclusive: 22.4 µM [inhibitor, partial curve]"
O=C(N/N=C/c1ccc(O)c(O)c1)C1c2ccccc2Oc2ccccc21,,active: 14.1 µM
C=CCOc1ccc(C2C(C#N)=C(N)N(N(C)C)C3=C2C(=O)CCC3)cc1 (stereo not drawn),,"inconclusive: 25.1 µM [inhibitor, partial curve]"
COc1ccc(-c2csc(Nc3ccc(S(=O)(=O)Nc4cc(C)on4)cc3)n2)cc1,,"inconclusive: 9.92 µM [inhibitor, partial curve]"
C=CCNC(=S)N/N=C/c1ccc(N(CC)Cc2ccccc2)cc1,,"inconclusive: 31.4 µM [inhibitor, single point]"
CC(Oc1ccc2ccc(=O)oc2c1)C(=O)NC(Cc1c[nH]c2ccc(O)cc12)C(=O)O (stereo not drawn),,"inconclusive: 11.2 µM [inhibitor, partial curve]"
COc1ccc(S(=O)(=O)NNC(=O)C(=O)NNc2ccccn2)cc1,,"inconclusive: 50.1 µM [inhibitor, single point]"
COC(=O)c1ccccc1NC(=O)CSc1nncn1C,,"inconclusive: 31.6 µM [inhibitor, single point]"
Cc1ccc(NC(=O)c2c(Cl)nc3ccccn23)cc1,,"inconclusive: 35.5 µM [inhibitor, single point]"
O=C(O)CCCCCCNC(=O)c1cncc(O)c1,inactive: 0.17%,
Cc1nn(-c2ccccc2)c(C)c1/C=N/n1c(-c2ccc(C(C)(C)C)cc2)n[nH]c1=S,,"inconclusive: 20 µM [inhibitor, partial curve]"
Cc1ccc(Nc2nc(CSc3n[nH]c(N)n3)cs2)cc1,,"inconclusive: 39.8 µM [inhibitor, single point]"
O=C1CSC(=S)N1Cc1cccnc1,,"inconclusive: 12.6 µM [inhibitor, partial curve]"
COc1cc(C2C(C#N)=C(N)Oc3c2c(-c2ccccc2)nn3-c2ccccc2)cc(OC)c1OC (stereo not drawn),,"inconclusive: 28.2 µM [inhibitor, partial curve]"
O=C(O)c1ccc(NS(=O)(=O)c2ccc3c(c2)C(=O)c2cc(S(=O)(=O)Nc4ccc(C(=O)O)cc4)ccc2-3)cc1,,"inconclusive: 28 µM [inhibitor, single point]"
O=C(Cn1c(=O)oc2cc(S(=O)(=O)N3CCCCCC3)ccc21)NC1CCCCCCC1,inactive: -1.36%,
Cc1cc(C(F)(F)F)cc(NNC(=O)NC(=O)c2ccccc2Cl)n1,,"inconclusive: 11.1 µM [inhibitor, partial curve, poor fit]"
O=C(NNS(=O)(=O)c1ccccc1)c1sccc1-n1cccc1,,"inconclusive: 28.2 µM [inhibitor, single point]"
COc1ccc(C(=O)N(Cc2ccc(N(C)C)cc2)C2CCS(=O)(=O)C2)cc1 (stereo not drawn),,"inconclusive: 25.1 µM [inhibitor, partial curve]"
c1ccc(OCCSc2nnc3sc4ccccc4n23)cc1,inactive: 2.86%,
Nc1ccc2nc(-c3ccccn3)[nH]c2c1,,"inconclusive: 35.5 µM [inhibitor, partial curve]"
O=C(Nc1ccc(OCC(=O)N2CCN(S(=O)(=O)c3ccccc3)CC2)cc1)c1ccco1,inactive: -24.1%,

SMILES,"activity change, negative = inhibition",Potency
Cc1ccc(S(=O)(=O)NC(=S)NC2CCCCC2)cc1,,"inconclusive: 39.8 µM [inhibitor, partial curve]"
COc1ccc(NC2CCCN(C(=O)CSc3ccccc3)C2)cc1OC (stereo not drawn),,"inconclusive: 7.08 µM [inhibitor, single point]"
COc1cccc2c1cc1c(=O)n(CC(=O)N3CCC(C)CC3)nc(C)n12,inactive: 1.14% [at 76.3 µM],
CCOc1cc(C(c2c(C)[nH][nH]c2=O)c2c(C)[nH][nH]c2=O)ccc1OS(=O)(=O)c1ccc(C)cc1,,"inconclusive: 35.2 µM [inhibitor, single point]"
Nc1ccc2nc(Cc3ccccc3)[nH]c2c1,,"inconclusive: 39.5 µM [inhibitor, single point]"
NNc1nc2sc3c(c2c(=O)n1-c1ccccc1)CCCC3,,"inconclusive: 35.5 µM [inhibitor, partial curve]"
CCOc1c(Br)cc(/C=C2\C(=O)N(CCC#N)N=C2C)cc1OC,,"inconclusive: 25.1 µM [inhibitor, single point]"
CNC(=O)c1c(NC(=O)Cc2coc3ccc(OC)cc23)sc2c1CCCC2,inactive: -8.81% [at 76.3 µM],
Cc1ccc(Nc2c(-c3ccc(C)cc3)nc3c(C)cccn23)cc1,,"inconclusive: 22.4 µM [inhibitor, partial curve]"
CC(C)c1ccc(Nc2c(-c3ccc(N(C)C)cc3)nc3cnccn23)cc1,,"inconclusive: 7.94 µM [inhibitor, full curve]"
CCOC(=O)Cc1csc(NC(=O)NC2(C(F)(F)F)Oc3ccc(Cl)cc3O2)n1 (stereo not drawn),,active: 11.1 µM
Cc1ccc2nc(Cl)c(/C=N/Nc3ccc(C(=O)O)cc3)cc2c1,,"inconclusive: 20 µM [inhibitor, partial curve]"
Cc1cc(C)c(O)c(N)c1,,"inconclusive: 39.5 µM [activator, single point]"
CCC(=O)N(CC)C1=C(O)c2ccccc2C(=O)C1=O,inactive: 10.3%,
CCOc1ccc(-c2cn(-c3ccccc3OC)c(=S)[nH]2)cc1,,"inconclusive: 50.1 µM [inhibitor, single point]"
CCOc1ccc(N2C(=O)C(CC(=O)Nc3ccccc3)N(Cc3ccccn3)C2=S)cc1 (stereo not drawn),,"inconclusive: 35.5 µM [inhibitor, single point]"
CCn1c(CNC(=O)c2cccs2)nnc1SCC(=O)Nc1cc(Cl)ccc1C,inactive: 6.4%,
COc1ccc(NCCC(O)c2ccc(Cl)cc2)cc1 (stereo not drawn),,"inconclusive: 7.08 µM [inhibitor, single point]"
CCN(CC)c1ccc(Nc2nc(-c3cccnc3)cs2)cc1,,"inconclusive: 11.2 µM [inhibitor, partial curve]"
CCOC(=O)c1c(C)n(C)c2ccc(O)c(CN3CCN(C)CC3)c12,,"inconclusive: 11.2 µM [inhibitor, partial curve]"
Cc1cc(=O)oc(C)c1C(=O)Nc1ccc(N(C)C)cc1,,"inconclusive: 39.8 µM [activator, partial curve]"
O=C(NNc1ccc(Cl)cc1)C1CCC1,,"inconclusive: 7.94 µM [inhibitor, full curve]"
